Experimental data from article PMC5892938.
Some of the results follow. At the low end of the ranking, values are background and their order means little.

Biological target: GST-SBP-SLBP (stem-loop binding protein) (UniProt Q14493)
Experiment: targeted RNA Bind-n-Seq;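 further: DESeq read counts versus GST-SBP nonspecific binding control pulldown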
Details: RBNS binding buffer: 25 mM Tris pH 7.5, 150 mM KCl, 3 mM MgCl2, 0.1% Tween, 0.5 mg/mL BSA, 1 mM DTT; 27 nM protein, 750 pM RNA pool; temperature not stated; high values mean tight binding

Sequence	binding signal (log2 fold change)
GGUCACGUCUCAAUCAACUCAACUUCCAGGGAAAUCCCUGGCAAAUUCAACAGCUCGCAGUCAAG	-0.0546
GGUCACGUCUCAAUCAACUCAAAAGAGGGGGGGAAAACCCCUUUACCCUCGUCCUCAACAGCUCGCAGUCAAG	0.168
GGUCACGUCUCAAUCAACUCUCAAGAGGGGGGGAAAACCCCUUUGCCCUCACUUUCAACAGCUCGCAGUCAAG	0.453
GGUCACGUCUCAAUCAACUCAAUCUCCAGGGAAAUCCCUGGCUAUGUCAACAGCUCGCAGUCAAG	0.0201
GGUCACGUCUCAAUCAACUCAAUCUCAGGAGUUUUCUCCUGUAUACUCAACAGCUCGCAGUCAAG	0.429
GGUCACGUCUCAAUCAACUCUAUCCCAGGAGUUUUCUCCUGUUUAUUCAACAGCUCGCAGUCAAG	0.214
GGUCACGUCUCAAUCAACUCUUCCUCAGGAGUUUUCUCCUGUUAUUUCAACAGCUCGCAGUCAAG	0.107
GGUCACGUCUCAAUCAACUCAAUCCCCAGGGAAACCCCUGGCAUAGUCAACAGCUCGCAGUCAAG	0.0243
GGUCACGUCUCAAUCAACUCUAUUCCCAGGGAAAACCCUGGCAUUUUCAACAGCUCGCAGUCAAG	0.49
GGUCACGUCUCAAUCAACUCAUCCUCAGGAGUUUCCUCCUGUUUUCUCAACAGCUCGCAGUCAAG	0.0105
GGUCACGUCUCAAUCAACUCUUUUCCAGGAGUUUCCUCCUGCUAAUUCAACAGCUCGCAGUCAAG	0.115
GGUCACGUCUCAAUCAACUCAUUCUCCAGGGAAAGCCCUGGCAAUUUCAACAGCUCGCAGUCAAG	0.0977
GGUCACGUCUCAAUCAACUCUUUCCCCAGGGAAAGCCCUGGUUAAUUCAACAGCUCGCAGUCAAG	0.0135
GGUCACGUCUCAAUCAACUCAACUCCCAGGGAAAACCCUGGCAUUUUCAACAGCUCGCAGUCAAG	-0.00339
GGUCACGUCUCAAUCAACUCAUCUCCCAGGGAAAACCCUGGUUUUUUCAACAGCUCGCAGUCAAG	-0.108
GGUCACGUCUCAAUCAACUCUACUCCCAGGGAAACCCCUGGUAUUUUCAACAGCUCGCAGUCAAG	-0.0341
GGUCACGUCUCAAUCAACUCCUAAGAGGGGGGGAAAACCCCUUUACCCUCAAUUUCAACAGCUCGCAGUCAAG	-0.0542
GGUCACGUCUCAAUCAACUCACUCGAGGGGGGGAAAACCCCUUUACCCUCACAAUCAACAGCUCGCAGUCAAG	-0.266
GGUCACGUCUCAAUCAACUCAUCCUCCAGGGAAAGCCCUGGUAUUCUCAACAGCUCGCAGUCAAG	0.104
GGUCACGUCUCAAUCAACUCUUUCCCCAGGGAAAACCCUGGUAAUCUCAACAGCUCGCAGUCAAG	0.26
GGUCACGUCUCAAUCAACUCUAUCCCAGGAGUUUUCUCCUGUUAUUUCAACAGCUCGCAGUCAAG	-0.14
GGUCACGUCUCAAUCAACUCUUUAGAGGGGGGGAAAACCCCUUUGCCCUCCGUAUCAACAGCUCGCAGUCAAG	-0.208
GGUCACGUCUCAAUCAACUCAACAGAGGGGGGGAAAACCCCUUUACCCUCCACCUCAACAGCUCGCAGUCAAG	0.265
GGUCACGUCUCAAUCAACUCCUACGAGGGGGGGAAAACCCCUUUACCCUCAACUUCAACAGCUCGCAGUCAAG	-0.294
GGUCACGUCUCAAUCAACUCGCAAGAGGGGGGGAAAACCCCUUUACCCUCCAAUUCAACAGCUCGCAGUCAAG	-0.0707

Sequence	binding signal (log2 fold change)
GGUCACGUCUCAAUCAACUCAAUCUCCAGGGAAAACCCUGGUUAAUUCAACAGCUCGCAGUCAAG	-0.0359
GGUCACGUCUCAAUCAACUCAAGGUCAGGAGUUUACUCCUGCAAAUUCAACAGCUCGCAGUCAAG	-0.161
GGUCACGUCUCAAUCAACUCUUCGUCAGGAGUUUUCUCCUGUAUACUCAACAGCUCGCAGUCAAG	0.0793
GGUCACGUCUCAAUCAACUCAGUUUCCAGGGAAAACCCUGGCUUUCUCAACAGCUCGCAGUCAAG	0.31
GGUCACGUCUCAAUCAACUCAUCUCCCAGGGAAAUCCCUGGCUUAUUCAACAGCUCGCAGUCAAG	0.417
GGUCACGUCUCAAUCAACUCAUUCUCAGGAGUUUCCUCCUGUAAUCUCAACAGCUCGCAGUCAAG	0.0777
GGUCACGUCUCAAUCAACUCAUCAGAGGGGGGGAAAACCCCUUUACCCUCCAUCUCAACAGCUCGCAGUCAAG	-0.151
GGUCACGUCUCAAUCAACUCUAUUCCAGGAGUUUUCUCCUGCAUUCUCAACAGCUCGCAGUCAAG	0.02
GGUCACGUCUCAAUCAACUCAUCCCCAGGAGUUUACUCCUGCUUACUCAACAGCUCGCAGUCAAG	0.248
GGUCACGUCUCAAUCAACUCAGUUCCAGGAGUUUUCUCCUGCAUAUUCAACAGCUCGCAGUCAAG	-0.148
GGUCACGUCUCAAUCAACUCAUUUCCCAGGGAAAGCCCUGGCUUAUUCAACAGCUCGCAGUCAAG	0.106
GGUCACGUCUCAAUCAACUCAUCCUCCAGGGAAAACCCUGGUAAACUCAACAGCUCGCAGUCAAG	-0.0493
GGUCACGUCUCAAUCAACUCAUCUUCCAGGGAAAACCCUGGUUAAUUCAACAGCUCGCAGUCAAG	-0.0913
GGUCACGUCUCAAUCAACUCAUCAGAGGGGGGGAAAACCCCUUUACCCUCACAAUCAACAGCUCGCAGUCAAG	0.0887
GGUCACGUCUCAAUCAACUCAGUCCCAGGAGUUUUCUCCUGCAAUCUCAACAGCUCGCAGUCAAG	-0.0619
GGUCACGUCUCAAUCAACUCAUCUCCCAGGGAAAACCCUGGCAUUUUCAACAGCUCGCAGUCAAG	-0.256
GGUCACGUCUCAAUCAACUCAUUCUCCAGGGAAAGCCCUGGUUUAUUCAACAGCUCGCAGUCAAG	-0.115
GGUCACGUCUCAAUCAACUCAAUCUCCAGGGAAAUCCCUGGUUUAUUCAACAGCUCGCAGUCAAG	0.00447
GGUCACGUCUCAAUCAACUCAUUAGAGGGGGGGAAAACCCCUUUGCCCUCAUCGUCAACAGCUCGCAGUCAAG	-0.627
GGUCACGUCUCAAUCAACUCAAUCUCAGGAGUUUCCUCCUGUUAACUCAACAGCUCGCAGUCAAG	0.181
GGUCACGUCUCAAUCAACUCUUCUUCCAGGGAAAUCCCUGGUAUACUCAACAGCUCGCAGUCAAG	0.0374
GGUCACGUCUCAAUCAACUCUUUUCCCAGGGAAAACCCUGGCAAUUUCAACAGCUCGCAGUCAAG	-0.00751
GGUCACGUCUCAAUCAACUCAGUCCCAGGAGUUUGCUCCUGCAUAUUCAACAGCUCGCAGUCAAG	0.0033
GGUCACGUCUCAAUCAACUCCUUCGAGGGGGGGAAAACCCCUUUACCCUCAACAUCAACAGCUCGCAGUCAAG	-0.116
GGUCACGUCUCAAUCAACUCUUUCGAGGGGGGGAAAACCCCUUUACCCUCACACUCAACAGCUCGCAGUCAAG	0.0756

Sequence	binding signal (log2 fold change)
GGUCACGUCUCAAUCAACUCAAUUUCAGGAGUUUGCUCCUGCUAAUUCAACAGCUCGCAGUCAAG	0.108
GGUCACGUCUCAAUCAACUCAAUUCCCAGGGAAACCCCUGGCAAAUUCAACAGCUCGCAGUCAAG	-0.0961
GGUCACGUCUCAAUCAACUCAUCCUCAGGAGUUUUCUCCUGUAUUUUCAACAGCUCGCAGUCAAG	0.254
GGUCACGUCUCAAUCAACUCAUCGCCAGGAGUUUUCUCCUGCAUAUUCAACAGCUCGCAGUCAAG	-0.05
GGUCACGUCUCAAUCAACUCUAUCGCAGGAGUUUUCUCCUGGUUUUUCAACAGCUCGCAGUCAAG	-0.0572
GGUCACGUCUCAAUCAACUCAAUCCCAGGAGUUUUCUCCUGCAAUCUCAACAGCUCGCAGUCAAG	0.0531
GGUCACGUCUCAAUCAACUCAAUCCCAGGAGUUUUCUCCUGUAAUCUCAACAGCUCGCAGUCAAG	0.0189
GGUCACGUCUCAAUCAACUCAUUUUCCAGGGAAAUCCCUGGCGUAUUCAACAGCUCGCAGUCAAG	0.0186
GGUCACGUCUCAAUCAACUCUUCCCCCAGGGAAAACCCUGGCAAUUUCAACAGCUCGCAGUCAAG	-0.0532
GGUCACGUCUCAAUCAACUCUACGGCAGGAGUUUACUCCUGGAAUUUCAACAGCUCGCAGUCAAG	0.0671
GGUCACGUCUCAAUCAACUCCUCAGAGGGGGGGAAAACCCCUUUACCCUCCGUAUCAACAGCUCGCAGUCAAG	0.173
GGUCACGUCUCAAUCAACUCUAGUCCCAGGGAAAACCCUGGUUAUUUCAACAGCUCGCAGUCAAG	-0.261
GGUCACGUCUCAAUCAACUCAAUUUCCAGGGAAACCCCUGGCAUACUCAACAGCUCGCAGUCAAG	-0.288
GGUCACGUCUCAAUCAACUCUAUUUCCAGGGAAAUCCCUGGCAUUUUCAACAGCUCGCAGUCAAG	0.0836
GGUCACGUCUCAAUCAACUCUCUGGAGGGGGGGAAAACCCCUUUACCCUCAACAUCAACAGCUCGCAGUCAAG	-0.497
GGUCACGUCUCAAUCAACUCAUCCUCAGGAGUUUCCUCCUGCAUUUUCAACAGCUCGCAGUCAAG	0.0885
GGUCACGUCUCAAUCAACUCAUCCCCCAGGGAAAACCCUGGCAUUCUCAACAGCUCGCAGUCAAG	-0.11
GGUCACGUCUCAAUCAACUCAAUCCCCAGGGAAAACCCUGGUAUACUCAACAGCUCGCAGUCAAG	0.0502
GGUCACGUCUCAAUCAACUCUUUUCCCAGGGAAAGCCCUGGCUUACUCAACAGCUCGCAGUCAAG	0.187
GGUCACGUCUCAAUCAACUCAAUUCCCAGGGAAAGCCCUGGCUAUCUCAACAGCUCGCAGUCAAG	0.166
GGUCACGUCUCAAUCAACUCUUCGUCAGGAGUUUUCUCCUGUAAUCUCAACAGCUCGCAGUCAAG	-0.221
GGUCACGUCUCAAUCAACUCAUUCUCAGGAGUUUGCUCCUGCUUACUCAACAGCUCGCAGUCAAG	0.11
GGUCACGUCUCAAUCAACUCGUUUUCAGGAGUUUACUCCUGCUAUUUCAACAGCUCGCAGUCAAG	0.0776
GGUCACGUCUCAAUCAACUCUACUCCCAGGGAAACCCCUGGCAAUCUCAACAGCUCGCAGUCAAG	-0.157
